Source: the supplement of paper PMC9433436
± gives the standard deviation of the averaged measurements. Over roughly 4,100 sequences, “relative kcat/Km (krel) vs genomic leader AAAGAU” has its median near 1.7; the highest 2% begin near 6.5. This is a selection; strong and weak results do not stand in their true shares.

Biological target: T1, E. coli RNase P holoenzyme (M1 P RNA + rnpA protein) (UniProt P0A7Y8)
T1 sequence: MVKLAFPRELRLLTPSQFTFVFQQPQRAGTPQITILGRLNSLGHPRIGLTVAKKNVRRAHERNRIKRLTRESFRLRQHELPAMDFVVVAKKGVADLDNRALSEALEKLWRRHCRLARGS
Assay: relative kcat/Km (krel) vs genomic leader AAAGAU (relative (reference leader = 1)); higher = faster RNase P cleavage
Description: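 HTS-Kin: a pool of ptRNA-Met (21C construct) with all 4096 combinations of 5' leader nucleotides N(-6) to N(-1) was processed in vitro by E. coli RNase P (P RNA + rnpA/C5 protein) under multiple-turnover conditions at 37 C, pH 8, 17.5 mM MgCl2. Residual substrate was Illumina-sequenced at several fractions reacted, and relative kcat/Km (krel) was computed by internal competition kinetics, calibrated to the genomic leader (AAAGAU = 1). The listed hexamer is the varied N(-6)..N(-1) leader (DNA letters), and it sits between a fixed 5' stem-loop flank (GCAUGCACGAAAGUGCGUGCUAUGAA) and the mature tRNA-Met starting GGCUACGUAGCUCAGUUGG. Two technical replicates are averaged.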

[1] = fraction of substrate reacted: ~9-10% (9.79% repeat 1, 9.1% repeat 2)
[2] = fraction of substrate reacted: ~13-16% (15.68% repeat 1, 13.17% repeat 2)
[3] = fraction of substrate reacted: ~26-29% (28.66% repeat 1, 26.4% repeat 2)

| Sequence | relative kcat/Km [1] | relative kcat/Km [2] | relative kcat/Km [3] |
| --- | --- | --- | --- |
| CGCCAC | 2.83 ± 1 | 3.31 ± 0.42 | 5.23 ± 2 |
| GGACGA | 2.09 ± 0.84 | 1.76 ± 0.19 | 3.1 ± 0.59 |
| AGCCAG |  |  | 2.09 ± 0.17 |
| CCTAAT | 2.2 ± 0.41 | 3 ± 1.2 | 3.71 ± 1.5 |
| TTTCAA | 2.81 ± 1.9 | 2.95 ± 0.37 | 4.9 ± 2.3 |
| GTGCCA | 0.534 ± 0.045 |  |  |
| GTTTCA | 2.031 ± 0.017 | 2.33 ± 0.61 | 3.07 ± 1.4 |
| ACATAC | 3.09 ± 1.3 | 3.78 ± 0.48 | 6.1 ± 2.7 |
| AGCTCC | 2.59 ± 0.77 | 2.42 ± 0.76 | 3.39 ± 0.93 |
| TTAGAT | 1.88 ± 0.57 | 2.14 ± 0.17 | 2.8 ± 1.2 |
| TTCTTG | 1.95 ± 1.7 | 1.96 ± 0.17 | 4 ± 1.1 |
| CGCGGG | 0.135 ± 0.028 |  | 0.258 ± 0.092 |
| AAATGA | 1.72 ± 0.08 | 2.3 ± 0.48 | 3.26 ± 0.6 |
| GCATGG |  |  | 0.667 ± 0.047 |
| AGGGCG |  |  | 0.407 ± 0.03 |
| GACTTA | 3.03 ± 0.62 | 4.15 ± 0.96 | 5.78 ± 2.2 |
| ATCATC | 3.27 ± 0.66 | 4.72 ± 0.78 | 6.25 ± 2.5 |
| CTATAA | 3.33 ± 1.3 | 3.72 ± 0.51 | 4.92 ± 1.3 |
| CCTCAT | 3.36 ± 1.2 | 3.53 ± 1.4 | 4.91 ± 1.8 |
| ACTTGA | 1.99 ± 0.17 | 3.34 ± 0.94 | 4.47 ± 1.9 |
| GGAGTT | 1.4 ± 0.32 | 1.48 ± 0.098 | 1.69 ± 1.1 |
| ATGAGC | 1.07 ± 0.46 | 0.565 ± 0.33 | 0.952 ± 0.33 |
| TCATCC | 3.59 ± 1.3 | 3.87 ± 1.3 | 5.31 ± 2.2 |
| CTAGAA | 1.96 ± 0.038 | 2.24 ± 0.15 | 3.47 ± 0.95 |
| TCATAG | 1.97 ± 1.4 | 1.66 ± 0.34 | 3.6 ± 0.47 |
| GCGATT | 0.996 ± 0.34 | 1.5 ± 0.55 | 1.68 ± 0.66 |

| Sequence | relative kcat/Km [1] | relative kcat/Km [2] | relative kcat/Km [3] |
| --- | --- | --- | --- |
| CTCTCC | 3.04 ± 0.91 | 4.91 ± 0.6 | 6.17 ± 2.2 |
| ATCGGA | 0.168 ± 0.15 | 0.728 ± 0.66 | 1.28 ± 1.1 |
| CTATTA | 2.6 ± 0.88 | 2.36 ± 0.19 | 3.23 ± 0.97 |
| ATTATC | 2.48 ± 1.3 | 2.23 ± 0.16 | 3.06 ± 1.4 |
| TAGTTT | 2.38 ± 0.77 | 3.06 ± 0.42 | 4.05 ± 2.3 |
| TTCGTG |  | 0.287 ± 0.27 | 2.01 ± 0.17 |
| ACCTTC | 2.69 ± 1.4 | 2.74 ± 0.55 | 4.18 ± 1.4 |
| AAGCCC | 0.958 ± 0.2 | 0.906 ± 0.67 | 0.988 ± 0.31 |
| TTAACT | 1.58 ± 0.78 | 1.54 ± 0.2 | 2.03 ± 0.47 |
| CGTCCT | 2.14 ± 0.34 | 2.06 ± 0.17 | 3 ± 1.2 |
| CGAAGC | 2 ± 1.9 | 1.89 ± 0.033 | 2.25 ± 0.35 |
| GGAAGA | 2.26 ± 0.31 | 2.24 ± 0.41 | 3.83 ± 0.61 |
| CTATTG |  |  | 0.916 ± 0.74 |
| TCGAGC | 2.77 ± 0.86 | 2.65 ± 1.1 | 2.82 ± 0.59 |
| GGTTAG |  |  | 2.2 ± 0.25 |
| GAGCCA | 2.01 ± 1.3 | 0.881 ± 0.61 | 1.7 ± 0.28 |
| GCATCC | 1.35 ± 0.49 | 1.42 ± 0.14 | 2.87 ± 0.81 |
| CAACGC | 1.85 ± 0.72 | 1.39 ± 0.028 | 2.4 ± 0.8 |
| TGACCG |  |  | 0.911 ± 0.05 |
| GTGCCT | 1.49 ± 0.64 | 0.349 ± 0.057 | 1.05 ± 0.21 |
| GCGCGA | 1.02 ± 0.98 | 0.82 ± 0.55 | 1.61 ± 0.45 |
| TCTGAA | 1.92 ± 0.47 | 2.38 ± 0.57 | 2.97 ± 1.1 |
| TACGGG |  |  | 1.33 ± 1.2 |
| TACGGA | 0.765 ± 0.61 | 1.48 ± 1.2 | 1.64 ± 1.4 |
| TCGGAC | 2.06 ± 1.7 | 1.47 ± 0.48 | 1.85 ± 0.66 |
| GTAACC | 2.15 ± 1.4 | 1.07 ± 0.27 | 1.79 ± 0.34 |

| Sequence | relative kcat/Km [1] | relative kcat/Km [2] | relative kcat/Km [3] |
| --- | --- | --- | --- |
| AGCGGC | 0.718 ± 0.35 | 1.28 ± 1.2 | 1.33 ± 1.2 |
| GCATAC | 1.55 ± 0.17 | 2.46 ± 0.94 | 4.24 ± 1.6 |
| GATGTT | 0.712 ± 0.68 |  | 1.4 ± 0.85 |
| CAGTTC | 2.07 ± 1.6 | 2.19 ± 0.32 | 2.95 ± 0.31 |
| CGAGAA | 2.31 ± 0.19 | 2.21 ± 1.4 | 3.15 ± 1.6 |
| CCCTGC | 2.87 ± 1.4 | 3.39 ± 0.2 | 5.06 ± 1.6 |
| GGGCCA | 1.48 ± 0.33 | 0.452 ± 0.2 | 1.04 ± 0.54 |
| GCGACC | 1.21 ± 0.73 | 0.862 ± 0.33 | 1.13 ± 0.19 |
| AAGCTT | 1.46 ± 0.64 | 1.37 ± 0.038 | 1.61 ± 0.014 |
| CCCCCT | 2.27 ± 1.8 | 1.25 ± 0.29 | 1.95 ± 0.15 |
| CGCCGG | 0.48 ± 0.17 |  | 1.15 ± 0.32 |
| CGGGAA | 1.33 ± 0.59 | 1.32 ± 0.29 | 1.29 ± 0.09 |
| TATAGG |  |  | 1.41 ± 0.5 |
| GCTAGC | 1.3 ± 0.3 | 1.57 ± 0.38 | 1.92 ± 0.22 |
| CTCGAG | 1.8 ± 0.06 | 1.72 ± 1.4 | 3.97 ± 1.3 |
| ATCTGC | 3.18 ± 0.4 | 3.94 ± 1.9 | 6.13 ± 3 |
| TCGATC | 2.27 ± 0.09 | 2.62 ± 1.1 | 3.96 ± 1.3 |
| GGTCGA | 1.03 ± 0.9 | 2.26 ± 0.98 | 3.2 ± 1.3 |
| AGACTC | 2.45 ± 1.3 | 2.19 ± 0.25 | 2.4 ± 0.29 |
| ACCGAG | 2.58 ± 2.5 | 0.833 ± 0.22 | 2.44 ± 0.21 |
| GAAATT | 1.45 ± 0.96 | 1.17 ± 0.27 | 1.89 ± 0.47 |
| ACAGGG | 0.201 ± 0.11 |  | 1.03 ± 1 |
| AATTCC | 2.91 ± 1.4 | 2.15 ± 0.66 | 2.44 ± 0.66 |
| CCTATG |  | 0.685 ± 0.47 | 2.25 ± 0.41 |
| CGAACT | 1.21 ± 0.45 | 0.253 ± 0.058 | 1.36 ± 0.21 |
| CACGGA |  |  | 0.766 ± 0.63 |

| Sequence | relative kcat/Km [1] | relative kcat/Km [2] | relative kcat/Km [3] |
| --- | --- | --- | --- |
| CGGAAA | 1.04 ± 0.18 | 1.09 ± 0.26 | 1.18 ± 0.27 |
| TTCTAA | 5.69 ± 2.2 |  |  |
| TCTTGA | 2.62 ± 1.2 | 3.33 ± 0.99 | 5.86 ± 2.8 |
| TACCGC | 3.15 ± 1.3 | 4.16 ± 0.76 | 6.03 ± 2.5 |
| CATGCT | 1.57 ± 0.78 | 0.422 ± 0.17 | 0.818 ± 0.32 |
| GAACCA |  | 0.958 ± 0.39 | 1.32 ± 0.75 |
| AAGAAC | 1.88 ± 0.69 | 2.08 ± 0.28 | 2.85 ± 0.47 |
| AGTCGA | 2.68 ± 0.35 | 3.65 ± 1.2 | 5.59 ± 2 |
| GCACAT | 1.01 ± 0.026 | 0.907 ± 0.12 | 2.61 ± 1.2 |
| CCGCCT | 1.45 ± 0.15 |  | 1.54 ± 0.38 |
| AGAGAA | 1.1225 ± 0.00048 | 2.03 ± 0.15 | 2.87 ± 0.86 |
| AGAACT | 0.853 ± 0.61 | 1.01 ± 0.59 | 1.58 ± 0.13 |
| GATCAT | 2.26 ± 0.96 | 3.62 ± 0.21 | 5.17 ± 1.7 |
| TGGTAA | 0.283 ± 0.25 | 1.03 ± 0.62 | 1.24 ± 0.82 |
| ACTGGA | 0.346 ± 0.015 |  |  |
| ACTAAA | 2.3 ± 1.6 | 2.14 ± 0.14 | 3.03 ± 0.69 |
| TTCTGG | 0.949 ± 0.38 | 0.819 ± 0.094 | 1.66 ± 0.46 |
| AAGCCA | 1.15 ± 0.28 |  | 1.36 ± 0.77 |
| ACTTAA | 3.2 ± 1.5 | 3.22 ± 0.091 | 4.18 ± 1.5 |
| GATTGA | 2.31 ± 0.22 | 3.98 ± 1.1 | 4.96 ± 2.3 |
| TCAACC | 1.83 ± 0.38 | 1.66 ± 0.79 | 1.97 ± 0.24 |
| TGGTTA |  |  | 1.05 ± 0.53 |
| AGGGCC |  |  | 0.635 ± 0.26 |
| TTCGAT | 1.69 ± 0.22 | 2.71 ± 1.2 | 4.44 ± 2 |
